# This is one part of the list.
# B1: Epa10 (protein)
# chain: MNEKIFRYLTLLFLFELARSLPVEDKLNIKKVFEKRAVDFTPFAHYPRPEGCSSPPNSVSVGLHMNLYNYPYLYVKPSTKGMFTNDTNSDADGETDGDSAGGIEGRAGQCWNPEYQDPNFPRFGYKQYGEFGASDNVNGDISWDHNEFTEGCKPVLAALPPGYNYPDEITFSNFTMVLSGYFKPKTSGVYKFELKADDFILFNFGAKNAFECCNREESIDNFGPYVAYAMWPNQADQELEVYLFEDSYYPLRLFYNNRDYHSKFKIGFYPPGQTTITFDFDGYLFMLDDTGNECRDSIRYRTVCDDKVVDDTTYSTRYSTSMVPGGGSDVITIYYIRMKCEEEDCLGQWDPINNVCYSPDDCADDGGYWNGQMCDQSCKLEGGIVNPDTGDCDKSCIESGGFLDENGNCDTTCRDDGGMLVEGQCDYQCKEAGGILVGDHCDTTCVDSGGKLNEDGTCDHSCRDQGGQLDENGECDTSCKDSGGMLIEGECDTSCKDEGGQLDDNNECINHCKDQGGIIDENGNCDTSCKDSGGKLDESGACDTSCRDDGGIIDENGNCNTTCRDDGGIIVGDHCDTSCRDAGGILIEDHCDTTCRDSGGKLNEDGTCDHSCRDQGGQLDENGKCDYSCKNGGGKLDEDGNCDMSCKENGGKLDENGDCDLSCKEDGGKLDGNGDCDYSCKEEGGVIDESGNCNTTCKDSGGQIIDGECNYGCIEVGGVVIDGECDTSCIDSGGILDGDGNCDRSCIESGGVLEDGACNTTCRDSGGQLNVDGTCDTSCRDDGGMLVEGQCDYQCKEAGGILEDGECVFPPTSSSTSETSSTTDQSSLQSDDSSMESSSTPMDSSTIESSSSEIITSESESESVPIASSSSEVMTSESESESIPILTSSSEIPIASSSSEIPVASSSSEIIIPESESESVPVASSSSEIPIASSSSEIPVASSSSEIPVASSSSEIIIPESESESIPIESTSSEAVSSRSESDSSYPTPTPTTTTITTWPNPIQPTTSNSSPIVSSSTETPGIAESSSRISDLESSRRTSILGDDRTRTRTTITSTITEDGQIITITTTVTGFVPEPTGETEGNGSDDENPENPIENNTDENEFLDPEFTDDIPDDPAGPEDNGNGPVNPEQGNDNDPVNLEDSGNNGAVNPEQAPVNDEDNGGNDPVNPEQDNNNGPANPGQDSTNGSGNSDQIDNNPPTPEENAGDGNSNGNDPADPSRRTSILGDERTRASPGGTSQPTGANGNVNGNSPGANVNGGGTGNSNNNNNNNNNNNNGNAPNGGDGSNGDANQGPSRRTSLLGDERTRAGQAAPTGGSSPDNGIAGDTSNNGGAIVSQQVDDGGAGSPRRTSILGDVRSRTTLNGEVLNFEGSGVRRAVAGNLALPLMMVGLVFNL
# Key:
# Experiment in all cases: glycan array binding signal (z-score within array); higher = stronger binding
# Settings in all cases: glycan notation: IUPAC condensed, linker removed
# [1] = target: Gal3S(b1-4)Glc
# How it was run: (§1)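 Glycan array data came from 3228 arrays in the Consortium for Functional Glycomics database, and only arrays with an available protein sequence were kept. Glycan names were put into IUPAC-condensed notation, and columns mapping to the same glycan were averaged. The binding signal is a within-array Z-score, averaged across arrays of one protein sequence run at different concentrations or buffers and across linkers. A negative Z-score can be read as non-binding.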
# [2] = target: Gal3S(b1-4)Glc6S
# How it was run: as §1
# [3] = target: Gal3S(b1-4)GlcNAc
# How it was run: as §1
# [4] = target: Gal3S(b1-4)[Fuc(a1-3)]Glc6S
# How it was run: as §1
# [5] = target: Gal3S(b1-4)[Fuc(a1-3)]GlcNAc
# How it was run: as §1
# [6] = target: Gal3S(b1-4)[Fuc(a1-3)]GlcNAc6S
# How it was run: as §1
# [7] = target: Gal3S4S(b1-4)GlcNAc
# How it was run: as §1
# [8] = target: Gal3S6S(b1-4)GlcNAc
# How it was run: as §1
# [9] = target: Gal3S6S(b1-4)GlcNAc6S
# How it was run: as §1
# [10] = target: Gal4S(b1-4)GlcNAc
# How it was run: as §1
# [11] = target: Gal4S6S(b1-4)GlcNAc
# How it was run: as §1
# [12] = target: Gal6P(b1-4)GlcNAc
# How it was run: as §1
# [13] = target: Gal6S(b1-3)GlcNAc
# How it was run: as §1
# [14] = target: Gal6S(b1-3)GlcNAc6S
# How it was run: as §1
# [15] = target: Gal6S(b1-4)Glc
# How it was run: as §1
# [16] = target: Gal6S(b1-4)Glc6S
# How it was run: as §1
# [17] = target: Gal6S(b1-4)GlcNAc
# How it was run: as §1
# [18] = target: Gal6S(b1-4)GlcNAc6S
# How it was run: as §1
# [19] = target: GalNAc(a1-3)Gal
# How it was run: as §1
# [20] = target: GalNAc(a1-3)GalNAc
# How it was run: as §1
# [21] = target: GalNAc(a1-3)GalNAc(b1-3)Gal(a1-4)Gal(b1-4)Glc
# How it was run: as §1
# [22] = target: GalNAc(a1-3)GalNAc(b1-3)Gal(a1-4)Gal(b1-4)GlcNAc
# How it was run: as §1
# [23] = target: GalNAc(b1-3)Gal
# How it was run: as §1
# [24] = target: GalNAc(b1-3)Gal(a1-4)Gal(b1-4)GlcNAc
# How it was run: as §1
# [25] = target: GalNAc(b1-3)Gal(a1-4)Gal(b1-4)GlcNAc(b1-3)Gal(b1-4)Glc
# How it was run: as §1
# [26] = target: GalNAc(b1-3)Gal(a1-6)Gal(b1-4)Glc
# How it was run: as §1
# [27] = target: GalNAc(b1-3)GalNAc
# How it was run: as §1
# [28] = target: GalNAc(b1-3)GlcNAc
# How it was run: as §1
# [29] = target: GalNAc(b1-4)Gal(b1-4)Glc
# How it was run: as §1
# [30] = target: GalNAc(b1-4)GlcNAc
# How it was run: as §1
# [31] = target: GalNAc(b1-4)GlcNAc(b1-2)Man
# How it was run: as §1
# [32] = target: GalNAc(b1-4)GlcNAc(b1-2)Man(a1-3)[GalNAc(b1-4)GlcNAc(b1-2)Man(a1-6)]Man(b1-4)GlcNAc(b1-4)GlcNAc
# How it was run: as §1
# [33] = target: GalNAc(b1-4)GlcNAc(b1-3)GalNAc(b1-4)GlcNAc
# How it was run: as §1
# [34] = target: GalNAc(b1-4)GlcNAc6S
# How it was run: as §1
# [35] = target: GalNAc(b1-6)GalNAc
# How it was run: as §1
# [36] = target: GalNAc3S(b1-4)GlcNAc
# How it was run: as §1
# [37] = target: GalNAc3S(b1-4)GlcNAc3S
# How it was run: as §1
# [38] = target: GalNAc3S(b1-4)[Fuc(a1-3)]GlcNAc
# How it was run: as §1
# [39] = target: GalNAc4S6S(b1-4)GlcNAc
# How it was run: as §1
# [40] = target: GalNAc6S(b1-4)GlcNAc
# How it was run: as §1
# [41] = target: Glc(a1-4)Glc
# How it was run: as §1
# [42] = target: Glc(a1-4)Glc(a1-4)Glc(a1-4)Glc
# How it was run: as §1
# [43] = target: Glc(a1-6)Glc(a1-6)Glc
# How it was run: as §1
# [44] = target: Glc(a1-6)Glc(a1-6)Glc(a1-6)Glc
# How it was run: as §1
# [45] = target: Glc(b1-4)Glc
# How it was run: as §1
# [46] = target: Glc(b1-6)Glc
# How it was run: as §1
# [47] = target: GlcA(b1-3)Gal
# How it was run: as §1
# [48] = target: GlcA(b1-3)GlcNAc
# How it was run: as §1
# [49] = target: GlcA(b1-6)Gal
# How it was run: as §1
# [50] = target: GlcA3S(b1-3)Gal(b1-4)GlcNAc(b1-2)Man
# How it was run: as §1
# [51] = target: GlcA3S(b1-3)Gal(b1-4)GlcNAc(b1-3)Gal(b1-4)Glc
# How it was run: as §1
# [52] = target: GlcNAc(a1-3)Gal(b1-4)GlcNAc
# How it was run: as §1
# [53] = target: GlcNAc(a1-4)Gal(b1-3)GlcNAc
# How it was run: as §1
# [54] = target: GlcNAc(a1-4)Gal(b1-4)GalNAc
# How it was run: as §1
# [55] = target: GlcNAc(a1-4)Gal(b1-4)GlcNAc
# How it was run: as §1
# [56] = target: GlcNAc(a1-4)Gal(b1-4)GlcNAc(b1-3)Gal(b1-4)Glc
# How it was run: as §1
# [57] = target: GlcNAc(a1-4)Gal(b1-4)GlcNAc(b1-3)Gal(b1-4)GlcNAc
# How it was run: as §1
# [58] = target: GlcNAc(a1-4)Gal(b1-4)GlcNAc(b1-3)Gal(b1-4)GlcNAc(b1-3)Gal(b1-4)GlcNAc
# How it was run: as §1
# [59] = target: GlcNAc(a1-4)Gal(b1-4)GlcNAc(b1-3)Gal(b1-4)[Fuc(a1-3)]GlcNAc(b1-3)Gal(b1-4)[Fuc(a1-3)]GlcNAc
# How it was run: as §1
# [60] = target: GlcNAc(a1-6)Gal(b1-4)GlcNAc
# How it was run: as §1
binder,measurement,setting,value
B1,glycan array binding signal (z-score),[1],-0.218
same,glycan array binding signal (z-score),[2],-0.187
same,glycan array binding signal (z-score),[3],-0.312
same,glycan array binding signal (z-score),[4],-0.1
same,glycan array binding signal (z-score),[5],-0.311
same,glycan array binding signal (z-score),[6],-0.35
same,glycan array binding signal (z-score),[7],-0.252
same,glycan array binding signal (z-score),[8],-0.277
same,glycan array binding signal (z-score),[9],-0.239
same,glycan array binding signal (z-score),[10],-0.247
same,glycan array binding signal (z-score),[11],-0.306
same,glycan array binding signal (z-score),[12],-0.183
same,glycan array binding signal (z-score),[13],-0.171
same,glycan array binding signal (z-score),[14],0.218
same,glycan array binding signal (z-score),[15],-0.365
same,glycan array binding signal (z-score),[16],0.033
same,glycan array binding signal (z-score),[17],-0.285
same,glycan array binding signal (z-score),[18],-0.119
same,glycan array binding signal (z-score),[19],-0.277
same,glycan array binding signal (z-score),[20],-0.207
same,glycan array binding signal (z-score),[21],-0.278
same,glycan array binding signal (z-score),[22],-0.142
same,glycan array binding signal (z-score),[23],-0.186
same,glycan array binding signal (z-score),[24],-0.153
same,glycan array binding signal (z-score),[25],-0.242
same,glycan array binding signal (z-score),[26],-0.227
same,glycan array binding signal (z-score),[27],-0.232
same,glycan array binding signal (z-score),[28],-0.302
same,glycan array binding signal (z-score),[29],-0.203
same,glycan array binding signal (z-score),[30],-0.254
same,glycan array binding signal (z-score),[31],-0.312
same,glycan array binding signal (z-score),[32],-0.099
same,glycan array binding signal (z-score),[33],-0.3
same,glycan array binding signal (z-score),[34],-0.276
same,glycan array binding signal (z-score),[35],-0.325
same,glycan array binding signal (z-score),[36],-0.253
same,glycan array binding signal (z-score),[37],-0.308
same,glycan array binding signal (z-score),[38],-0.263
same,glycan array binding signal (z-score),[39],-0.238
same,glycan array binding signal (z-score),[40],-0.25
same,glycan array binding signal (z-score),[41],-0.232
same,glycan array binding signal (z-score),[42],-0.304
same,glycan array binding signal (z-score),[43],-0.246
same,glycan array binding signal (z-score),[44],-0.268
same,glycan array binding signal (z-score),[45],-0.234
same,glycan array binding signal (z-score),[46],-0.244
same,glycan array binding signal (z-score),[47],-0.162
same,glycan array binding signal (z-score),[48],-0.244
same,glycan array binding signal (z-score),[49],-0.122
same,glycan array binding signal (z-score),[50],-0.276
same,glycan array binding signal (z-score),[51],-0.305
same,glycan array binding signal (z-score),[52],-0.222
same,glycan array binding signal (z-score),[53],-0.238
same,glycan array binding signal (z-score),[54],-0.249
same,glycan array binding signal (z-score),[55],-0.262
same,glycan array binding signal (z-score),[56],-0.3
same,glycan array binding signal (z-score),[57],-0.279
same,glycan array binding signal (z-score),[58],-0.217
same,glycan array binding signal (z-score),[59],-0.068
same,glycan array binding signal (z-score),[60],0.673
